# According to PubChem BioAssay AID504845 (National Center for Advancing Translational Sciences (NCATS), 2011):
# Out of some 390,000 compounds screened, about 150 (0.038%) were called active. Inconclusive results, whose numbers are uncertain, are shown with a selection of clear calls. The call rests on the fitted dose curve; in most records, active means well fitted inhibition curve with a large enough effect; inconclusive means small, poorly fitted or top-dose-only effect; inactive means no such curve, though single readings can be large or run the other way. A potency beside an inconclusive call is a rough fit, not a confirmed value.
# Molecular target: Regulator of G-protein signaling 4 (Homo sapiens) (UniProt P49798)
# Assay: Inhibitors of Regulator of G Protein Signaling (RGS) 4: qHTS; further: nearly all actives have a fitted effect of over 75% in size
# Conditions: Transcreener GDP fluorescence polarization, RGS4-accelerated GTP hydrolysis; series mostly up to 114 µM; activity change, negative = inhibition: at the top concentration
# How it was run: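 MLSMR compounds (23 nl, pin-transferred) preincubated 10 min at room temperature with a 500nM (2x) first reagent, then RGS4 at 900nM (2x) plus Transcreener GDP mix added; fluorescence polarization (620/688 nm) read before and after 90 min at 30 °C.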
# On the % scale 0 is the no-effect control and ±100 the full control effect; potency means the concentration at half of the fitted maximal effect; tags describe the fitted curve by direction and shape.
# UniProt P49798, sequence (P49798 whole entry, looked up): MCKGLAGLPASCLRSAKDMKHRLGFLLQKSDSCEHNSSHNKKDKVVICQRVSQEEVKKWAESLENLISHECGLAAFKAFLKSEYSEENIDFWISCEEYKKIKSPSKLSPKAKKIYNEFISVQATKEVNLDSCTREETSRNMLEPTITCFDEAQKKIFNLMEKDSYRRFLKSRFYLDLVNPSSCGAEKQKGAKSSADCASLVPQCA
Structure (SMILES),Potency,"activity change, negative = inhibition"
CC(C)c1nc(SCc2c(F)cccc2Cl)c2c(=O)n(C)c(=O)n(C)c2n1,"inconclusive: 28.2 µM [inhibitor, full curve, poor fit]",
COc1ccc(N(C)C(=O)c2onc3c2CCCC3)cc1,"inconclusive: 89.1 µM [inhibitor, single point]",
O=C(CSc1nc(=O)[nH]c2c1CCCC2)Nc1ccccc1C(F)(F)F,,inactive: -5.47%
CCOC(=O)C(NC(=O)Nc1ccc(F)cc1)(OCC)C(F)(F)F (stereo not given),,inactive: 3.54%
Cc1cccc(C)c1N(Cc1ccccc1F)S(C)(=O)=O,"inconclusive: 89.1 µM [inhibitor, partial curve, poor fit]",
O=C1CCCC2=C1C(c1ccc(Br)cc1)c1c([nH]c(=S)[nH]c1=O)N2 (stereo not given),"inconclusive: 79.4 µM [inhibitor, partial curve, poor fit]",
Cc1nc(NC(=O)Nc2ccc(Cl)cc2)sc1C,,inactive: 18.2%
COC(=O)C1=C(C)N(Cc2ccco2)C(=O)C1,"inconclusive: 17.8 µM [inhibitor, full curve, poor fit]",
CC(C)NC(=O)CC1C(=O)NCCN1CC(c1ccccc1)c1ccccc1 (stereo not given),"inconclusive: 50.1 µM [inhibitor, partial curve, poor fit]",
CC(C)CC1c2[nH]c3ccccc3c2CCN1C(=O)CCC(=O)N(C)C (stereo not given),"inconclusive: 50.1 µM [inhibitor, partial curve, poor fit]",
Cc1ccc(S(=O)(=O)Nc2ccc3c(c2)C(=O)N([C@H](C)CO)C[C@H](C)[C@@H](CN(C)C(=O)Nc2ccc4c(c2)OCO4)O3)cc1,,inactive: 18%
Cc1nc2ccccn2c1C(=O)NCc1ccc2c(c1)OCO2,,inactive: 9.39%
CN(CCOc1ccc(Br)cc1)CC(O)COc1ccc(C#N)cc1 (stereo not given),,inactive: -21%
CCOC(=O)NNc1ccc2nonc2c1[N+](=O)[O-],"inconclusive: 79.4 µM [inhibitor, partial curve, poor fit]",
Cc1nn(C)cc1/C=N/NC(=S)Nc1ccccc1,"inconclusive: 89.1 µM [inhibitor, partial curve, poor fit]",
CN(CCC1CCCCO1)C(=O)CCc1nnc(C2CCCCC2)o1 (stereo not given),,inactive: 13.6%
CCOc1ccccc1C1NC(c2ccc3c(c2)OCO3)=CC(c2ccccc2O)N1 (stereo not given),,inactive: -13.6%
O=[N+]([O-])c1ccc(S(=O)(=O)c2cccc(C(F)(F)F)c2)nc1,"inconclusive: 89.1 µM [inhibitor, single point]",
COc1ccc(CN(Cc2ccccc2)C(=O)c2ccco2)cc1COc1ccc(NC(C)=O)cc1,,inactive: -42.2%
CC(=O)Nc1cccc(CCc2nc3ccccc3[nH]2)c1,"inconclusive: 25.1 µM [inhibitor, full curve, poor fit]",
